Results on 56 compounds are retold here after ChEMBL document CHEMBL4888484, “Replenishing the malaria drug discovery pipeline: Screening and hit evaluation of the MMV Hit Generation Library 1 (HGL1) against asexual blood stage Plasmodium falciparum ,using a nano luciferase reporter read-out” (2022).

About 540 (0.36%) of roughly 150,000 compounds showed an effect of 50% or more. This is one part of the list.

The subject of this test is Plasmodium falciparum. As to the kind of experiment: Primary screen in NF54 nanoGlo assay, in single point, at 2uM, 72h; a lower Z score goes with more inhibition. Type of test: functional, Erythrocyte. Particulars: timepoint 72 hour.
As to `CC(C)c1nnc(NC(=O)C2CC=CCC2C(=O)N2CCOCC2)s1` (configuration not stated), the “% Inhibition” value is recorded as -3% and the Z score amounted to 0.57.
As for `CCCn1cc(NC(=O)NCc2snnc2C(C)C)nn1`, the “% Inhibition” value is reported as -15% and the Z score worked out at 1.91.
As for `CCCc1noc(CN2CCCN(C)c3cc(F)ccc32)n1`, the “% Inhibition” value is -7% and the Z score was determined as 0.97.
Turning to `Cc1n[nH]cc1CN(C)C(=O)c1cccn1C`, the “% Inhibition” value is on record as -8% and the Z score is 0.92.
Take `Cc1[nH]ccc1C(=O)N1CCC2(CC1)CC(=O)N(Cc1ccccc1)C2`: the “% Inhibition” value worked out at 2% and the Z score was -0.37.
For `Cc1nc(C)c(C)c(NC[C@]2(c3ccccc3)C[C@H](O)C2)n1`, the “% Inhibition” value turned out to be 0% and the Z score worked out at 0.01.
The matching figures for `COc1cccc(C(=O)NCc2ccc3c(c2)CCN3C(=O)c2ccncc2)c1`: -20% and 1.84.
As to `Cc1ccc(O)c(NC(=O)[C@H](C)S(C)(=O)=O)c1`, the “% Inhibition” value came to 4% and the Z score is -0.52.
Turning to `O=C(Nc1ccc(F)cc1F)c1ccc(S(=O)(=O)N2CCCCC2)o1`, the “% Inhibition” value was -14% and the Z score stood at 1.23.
As for `O=C(CCc1nc2ccccc2s1)c1ccc(Br)cc1`, the “% Inhibition” value is listed as -2% and the Z score worked out at 0.2.
Take `CC(C)[C@H](C#N)NC(=O)c1cnns1`: the “% Inhibition” value was -7% and the Z score came out at 0.92.
On to `Cc1c[nH]c([C@H](C)NC(=O)CCCn2cnnn2)n1`, for which the “% Inhibition” value was -11% and the Z score was determined as 2.1.
For the compound `O=C(c1cscn1)N1CCCc2cccc(Cl)c21`, the “% Inhibition” value is given as -12% and the Z score amounted to 1.51.
Consider `Cc1nccc(NC(=O)c2cc(Br)cnc2C2CC2)n1`, for which the “% Inhibition” value worked out at 1% and the Z score is -0.26.
For the compound `O=C(Nc1ccc2c(c1)OCO2)N1CCC(n2cc(C3CCCC3)nn2)CC1`, the “% Inhibition” value is recorded as -13% and the Z score worked out at 2.62.
As for `Cc1c(C(=O)N2CC3(CCCCC3)[C@@H]2C(C)C)nnn1C`, the “% Inhibition” value is reported as -7% and the Z score stood at 0.97.
For `CC[C@H](Oc1ccccc1C)c1nnc(-c2ccsc2)o1`, in that order: 6% and -0.98.
Turning to `c1ccc(CCC[C@H]2CN(c3cnccn3)CCO2)cc1`, the “% Inhibition” value is on record as -9% and the Z score is given as 1.32.
Consider `Cn1ncc2c(Oc3ccc4c(c3)CCC4)ncnc21`, for which the “% Inhibition” value was 26% and the Z score is -3.55.
In the case of `Cc1n[nH]c(C)c1CN(C)CCCCc1ccccc1`, the “% Inhibition” value was determined as 8% and the Z score is -1.53.
Take `COc1cnc(CN(C)Cc2cc(C)cc(C)n2)cc1O`: the “% Inhibition” value amounted to 2% and the Z score is given as -0.23.
With `C=CCNC(=O)c1cc(F)c(O)c(Cl)c1`, the “% Inhibition” value is recorded as -15% and the Z score is given as 2.22.
For `Cc1cc(=O)[nH]c2ccc(-c3cccc(C(=O)NCCN4CCCCC4)c3)cc12`, in that order: -2% and 0.18.
For `O=C(NC[C@H]1CCCN(Cc2cccc3nonc23)C1)c1ccccc1Cl`, in that order: -8% and 1.2.
`N#Cc1cccc(NC(=O)COc2ccc(C(=O)c3ccc(F)cc3)cc2)c1`: the “% Inhibition” value is reported as -4% and the Z score stood at 0.49.
Turning to `N#Cc1cnc(Nc2ccc(Cl)cc2)c(C#N)c1Nc1ccccc1`, the “% Inhibition” value was -5% and the Z score is reported as 0.69.
Consider `COc1ccccc1[C@@H](NC(=O)Cc1nnc(C)o1)c1ccco1`, for which the “% Inhibition” value is -5% and the Z score came out at 0.84.
On to `NC(=O)c1ccc(N2CCC3(CCCC3)CC2)nn1`, for which the “% Inhibition” value is -1% and the Z score is recorded as 0.08.
With `CCOC1CC1NC(=O)Cc1c(C)noc1C` (configuration not stated), the “% Inhibition” value is given as -3% and the Z score came to 0.39.
Take `COc1ccc(NC(=O)c2cn3c4c(cc(Br)cc4c2=O)CC3)c(OC)c1`: the “% Inhibition” value is -2% and the Z score amounted to 0.26.
As to `COc1ccc(CN(C)S(=O)(=O)CC2CCCCC2)cn1`, the “% Inhibition” value is on record as -4% and the Z score is reported as 0.73.
In the case of `CC(C)n1nccc1S(=O)(=O)NCC1(Cn2ccnc2)CC1`, the “% Inhibition” value is listed as -4% and the Z score was found to be 0.79.
As to `Cc1nn(-c2ccc3nnc(C)n3n2)c(C)c1CCC(=O)Nc1ccc(C(C)C)cc1`, the “% Inhibition” value is -2% and the Z score stood at 0.3.
Regarding `Cc1nn(C)c2nc(NCCN3CCCCC3)sc12`, the “% Inhibition” value came to 9% and the Z score is reported as -1.61.
For `O=S(=O)(c1ccnc(N2Cc3ccc(Cl)cc3C2)c1)N1CCCC1`, the “% Inhibition” value is reported as -2% and the Z score turned out to be 0.33.
Regarding `O=c1cccnn1CC1CN(c2ncc(Br)cn2)C1`, the “% Inhibition” value is -7% and the Z score turned out to be 1.02.
With `Cc1n[nH]cc1CNC(=O)[C@H]1CC1(C)C`, the “% Inhibition” value worked out at 5% and the Z score is given as -0.84.
`CC1CC(C(=O)NCC2(CC(N)=O)CC2)CC(C)(C)C1` (configuration not stated): the “% Inhibition” value is -4% and the Z score was 0.46.
Turning to `OC[C@]1(F)CCN(c2ncc(Cn3cc(Br)cn3)s2)C1`, the “% Inhibition” value was -9% and the Z score was 1.72.
As for `CCN1CC(=O)N[C@H]2CN(C(=O)CCN3CCCC3=O)CC[C@@H]2OCc2cccc(c2)Oc2cc(OC(C)C)cc(c2)C1=O`, the “% Inhibition” value is recorded as 0% and the Z score was found to be 0.07.
In the case of `O=C(N1CCC(Cc2cc(F)ccc2F)CC1)[C@]1(CO)CCCO1`, the “% Inhibition” value was -3% and the Z score is on record as 0.33.
On to `O=C(Nc1ccsc1)Nc1ncccc1F`, for which the “% Inhibition” value is -7% and the Z score was determined as 1.36.
Turning to `Cc1cc(C(=O)N2CCOC[C@@H]2CC(=O)N2CCC(CO)CC2)c(C)o1`, the “% Inhibition” value turned out to be 5% and the Z score is listed as -0.7.
In the case of `Cc1nc(C)c(S(=O)(=O)NCCc2ccns2)s1`, the “% Inhibition” value was -3% and the Z score is recorded as 0.55.
Take `Cc1ccc([C@@H]2CS(=O)(=O)CCN2)o1`: the “% Inhibition” value is reported as -5% and the Z score was 0.89.
Turning to `O=C(N[C@@H]1CC[C@H]2CCOc3ccccc3C(=O)N3CCN(Cc4ccc(F)c(F)c4)C[C@H]3C(=O)NC[C@H]1O2)C1CCOCC1`, the “% Inhibition” value was -14% and the Z score worked out at 1.76.
Turning to `O=C(Nc1snnc1C(=O)N1CCOCC1)N1CCOCC1`, the “% Inhibition” value is on record as -4% and the Z score worked out at 0.66.
For the compound `Cc1sc(CCNC(=O)c2csnn2)nc1-c1ccccc1`, the “% Inhibition” value is reported as -3% and the Z score amounted to 0.41.
As to `CC(C)c1cnc(NC(=O)Nc2ccn(Cc3ccncc3)n2)s1`, the “% Inhibition” value was -11% and the Z score came to 1.13.
`COc1cccc(NC(=O)[C@@H]2Cc3[nH]cnc3C3(CCOCC3)N2)c1`: the “% Inhibition” value was -3% and the Z score stood at 0.54.
As to `CS(=O)(=O)NCC1(CO)CC2(CCC2)C1`, the “% Inhibition” value is recorded as -7% and the Z score stood at 0.73.
Regarding `Cc1ccc(CNC(=O)c2ccc3nn(CC(=O)Nc4ccc5c(c4)OCCO5)c(=O)n3c2)cc1`, the “% Inhibition” value is -8% and the Z score turned out to be 0.72.
For the compound `COCCNC(=O)CN1C(=O)[C@@H]2CCCCN2c2ccc(C(=O)N3CCCCC3)cc21`, the “% Inhibition” value is given as -13% and the Z score was 1.2.
In the case of `CC(=O)N1CCC[C@H]1C(=O)NCc1nc(C)cs1`, the “% Inhibition” value is -19% and the Z score was 2.8.
For the compound `CN(C)C(=O)CO[C@H]1CCOC[C@H]1NC(=O)c1cccc2ccccc12`, the “% Inhibition” value is recorded as -5% and the Z score was 0.96.
In the case of `N#CCC[C@H](C#N)Cn1ccc(-c2cccs2)n1`, the “% Inhibition” value is on record as -3% and the Z score is on record as 0.37.

The % Inhibition is the drop in the measured response relative to a control, in per cent.
